No constants are given. Whether binding was seen depends on the method and setting. Binding seen in cells or lysates may run through a third protein. Some entries that bind do so weakly or less than the wild type.

Protein sequences, listed by entry. Tags and fused reporters are not part of them.
UniProt Q6GQQ9: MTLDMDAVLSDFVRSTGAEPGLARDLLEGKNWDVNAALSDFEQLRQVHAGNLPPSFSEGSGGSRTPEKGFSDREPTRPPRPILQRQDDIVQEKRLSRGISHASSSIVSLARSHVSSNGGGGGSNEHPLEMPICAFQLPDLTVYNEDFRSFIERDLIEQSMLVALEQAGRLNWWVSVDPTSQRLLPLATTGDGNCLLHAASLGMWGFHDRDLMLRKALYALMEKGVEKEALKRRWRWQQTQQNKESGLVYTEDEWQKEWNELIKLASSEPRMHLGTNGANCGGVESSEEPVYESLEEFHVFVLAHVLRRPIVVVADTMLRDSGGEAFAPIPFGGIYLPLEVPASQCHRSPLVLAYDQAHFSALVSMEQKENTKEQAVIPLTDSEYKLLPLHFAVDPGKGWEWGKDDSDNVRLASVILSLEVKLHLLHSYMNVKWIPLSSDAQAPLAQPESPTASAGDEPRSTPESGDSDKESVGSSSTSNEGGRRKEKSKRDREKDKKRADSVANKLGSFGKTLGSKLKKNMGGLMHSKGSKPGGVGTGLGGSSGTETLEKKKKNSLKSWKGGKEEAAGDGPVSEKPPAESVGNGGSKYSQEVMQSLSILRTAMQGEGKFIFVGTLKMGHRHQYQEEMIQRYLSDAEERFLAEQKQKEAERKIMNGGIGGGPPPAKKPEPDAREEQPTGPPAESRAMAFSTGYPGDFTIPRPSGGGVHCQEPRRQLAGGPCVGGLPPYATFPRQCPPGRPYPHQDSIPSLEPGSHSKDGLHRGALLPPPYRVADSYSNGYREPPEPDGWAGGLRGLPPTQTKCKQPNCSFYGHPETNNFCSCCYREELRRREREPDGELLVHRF
UniProt Q00987: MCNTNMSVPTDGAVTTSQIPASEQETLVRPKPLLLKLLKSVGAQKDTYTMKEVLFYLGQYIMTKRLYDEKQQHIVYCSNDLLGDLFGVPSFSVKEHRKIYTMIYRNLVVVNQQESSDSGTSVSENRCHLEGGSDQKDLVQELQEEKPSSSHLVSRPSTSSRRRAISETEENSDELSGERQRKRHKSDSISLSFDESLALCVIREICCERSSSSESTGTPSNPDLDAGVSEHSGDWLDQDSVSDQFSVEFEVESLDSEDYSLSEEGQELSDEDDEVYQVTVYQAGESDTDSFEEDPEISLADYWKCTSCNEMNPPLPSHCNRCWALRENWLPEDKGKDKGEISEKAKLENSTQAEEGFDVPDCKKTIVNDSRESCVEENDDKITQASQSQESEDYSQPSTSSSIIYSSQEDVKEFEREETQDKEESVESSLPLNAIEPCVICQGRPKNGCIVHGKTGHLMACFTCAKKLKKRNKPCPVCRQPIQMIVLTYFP

The target of test [1] is Flag-p53-G279E (UniProt P04637). In words: co-IP; HEK293T cells transfected with HA-OTUD7B and Flag-p53 constructs; lysates subjected to IP with anti-Flag antibodies, Western blot of input and IP; IP buffer 20 mM Tris, 150 mM NaCl, pH 7.8, 0.5% NP-40. In general terms: Immunoblotting shows a protein as a band on a membrane.
Test [2] deals with Flag-p53 construct lacking the TAD (UniProt P04637). The description is as above.
Test [3] deals with Flag-tagged wildtype p53 (UniProt P04637). The description is as above.
The target in test [4] is endogenous OTUD7B (human (endogenous in HEK293T, HepG2, MHCC-97H and Huh7)) (UniProt Q6GQQ9). In words: co-IP; endogenous proteins in lysates of HepG2, MHCC-97H or Huh7 cells; IP and Western blot; IP buffer 20 mM Tris, 150 mM NaCl, pH 7.8, 0.5% NP-40.
Test [5] addresses Flag-tagged wildtype p53 (UniProt P04637). In words: co-IP; HEK293T cells transfected with Flag-OTUD7B or Flag-p53; IP and immunoblotting with anti-Flag, p53 and OTUD7B antibodies; endogenous partner detected; IP buffer 20 mM Tris, 150 mM NaCl, pH 7.8, 0.5% NP-40.
Test [6] concerns the target endogenous p53 (wildtype) (human (endogenous in HEK293T and HepG2)) (UniProt P04637). In words: co-IP; endogenous proteins in lysates of HepG2, MHCC-97H or Huh7 cells; IP and Western blot; IP buffer 20 mM Tris, 150 mM NaCl, pH 7.8, 0.5% NP-40.
Test [7] addresses endogenous mutant p53 R249S of MHCC-97H cells (human (endogenous in MHCC-97H)) (UniProt P04637). Described as above.
For test [8], the target named is Flag-tagged OTUD7B (UniProt Q6GQQ9). Put plainly: co-IP; HEK293T cells transfected with Flag-OTUD7B or Flag-p53; IP and immunoblotting with anti-Flag, p53 and OTUD7B antibodies; endogenous partner detected; IP buffer 20 mM Tris, 150 mM NaCl, pH 7.8, 0.5% NP-40.

For the substance “HA-tagged OTUD7B (from UniProt Q6GQQ9 1-843) (enzyme)”, the binding result in test [1], in test [2] and in test [3] was “binds” throughout.

Consider “endogenous Mdm2 (from UniProt Q00987 1-491) (enzyme)”, for which, in test [4], the binding entry was “no binding”.

Turning to “endogenous OTUD7B (from UniProt Q6GQQ9 1-843) (enzyme)”, the binding entry in test [5], in test [6] and in test [7] was “binds” throughout.

As to “endogenous p53 (wildtype) (from UniProt P04637 1-393)”, the binding result in test [8] and in test [4] was “binds” each time.

The record behind these values is paper PMC11840744.
